Test results from PubChem BioAssay AID1346428 (National Center for Advancing Translational Sciences (NCATS), 2018).
Several values for one entry are separate records, joined by “and”; a condition that tells them apart may be missing. Equal entries are not always repeated. About 1,200 (2.5%) of roughly 48,000 compounds were called active. About 2% were inconclusive and are not listed.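 The calls were made as follows: active = activation of at least 60% and not above a set upper limit (about 1 call in 100 departs from these limits); inconclusive = activation of 40% to 60%, or above that upper limit; inactive = activation under 40%.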 Some of the results follow.
Also: 0% is about no effect.

What follows are compounds tested against Probable G-protein coupled receptor 32 (Homo sapiens) (UniProt O75388) (assay: qHTS for Agonists of Human Resolvin D1 Receptor DRV1). Conditions: CHO-K1 GPR32 beta-arrestin PathHunter luminescence, 90 min; at 76.9 µM; stronger effect = higher value; zero percent set by DMSO-only wells.
UniProt O75388, sequence (O75388 whole entry, looked up): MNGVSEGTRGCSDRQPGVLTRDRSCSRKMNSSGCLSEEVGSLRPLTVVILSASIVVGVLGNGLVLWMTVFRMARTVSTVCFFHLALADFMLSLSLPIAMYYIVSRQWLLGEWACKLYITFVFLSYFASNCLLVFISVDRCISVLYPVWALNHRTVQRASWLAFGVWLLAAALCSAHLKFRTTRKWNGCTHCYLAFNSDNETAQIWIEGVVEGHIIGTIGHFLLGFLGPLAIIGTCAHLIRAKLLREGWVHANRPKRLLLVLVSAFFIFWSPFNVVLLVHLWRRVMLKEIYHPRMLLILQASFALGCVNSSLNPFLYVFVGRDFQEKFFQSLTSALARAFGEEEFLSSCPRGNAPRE
Procedure, shortened: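 Cells are plated overnight, treated with compounds in DMSO for 90 minutes at 37 °C, and developed with PathHunter detection reagent for 1 hour before luminescence is read; signal reflects beta-arrestin binding to GPR32 in engineered CHO-K1 cells.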
In the case of `O=C(NCCc1csc2nc(-c3ccccc3F)nn12)c1ccco1`, the activation is reported as inactive: 17.7%.
With `COc1ccccc1NC(=O)c1c(NCc2ccc(OC)c(OC)c2OC)sc2c1CCCC2` the activation was inactive: -3.2%.
For `CCOC(=O)c1c(C)[nH]c(C)c1S(=O)(=O)NCC(=O)Nc1cc(C)ccc1OC`, the activation was inactive: 0.249%.
In the case of `Cc1ccc(NC(=O)Nc2ccc3c(c2)N(C)C(=O)c2ccccc2S3)c(C)c1`, the activation is reported as inactive: -15.1%.
For `COc1ccc(NC(=O)c2cc3c(=O)n(Cc4ccco4)ccc3nc2C)cc1`, the activation was inactive: -9.93%.
`CCN1CCN(CCCNC(=O)c2cnn(-c3ccccc3)c2C2CCN(C(=O)OC(C)(C)C)CC2)CC1` was tested, and the activation was inactive: -11%.
For `COc1ccc(N2CCN(S(=O)(=O)CCNC(=O)C(c3ccccc3)c3ccccc3)CC2)cc1`, the activation was inactive: -23.9%.
`O=C(O)CCCC[C@@H]1SC[C@@H]2NC(=O)N[C@@H]21` was tested, and the activation was inactive: 7.14%.
With `CN1CCN(c2cc3c(cc2F)c(=O)c(C(=O)O)cn3-c2ccc(F)cc2)CC1` the activation was inactive: -21.5%.
`Cc1ccc(-c2c(CN3CCN(c4cccc(C(F)(F)F)c4)CC3)csc2C)cc1` was tested, and the activation was inactive: -16.1%.
`COc1cccc(C2C=C(c3ccc(C)c(C)c3)Nc3nnnn32)c1OC` (centres undefined) was tested, and the activation was inactive: -12.3%.
With `CCCCOc1ccc(C(=O)Nc2cccc(-c3nc4cccnc4s3)c2)cc1` the activation was inactive: -13.1%.
For `COc1ccccc1CNC(=O)C(NS(=O)(=O)c1cccs1)C(C)C` (centres undefined), the activation was inactive: -9.16%.
For `COc1ccc(-c2cc3ccc(O)c(CN4CCOCC4)c3oc2=O)cc1OC`, the activation was inactive: 18.3%.
For `Cc1cc2n(n1)C(c1cc(C(C)(C)C)c(O)cc1O)Nc1ccccc1-2` (centres undefined), the activation was inactive: -36.8%.
`CCOc1ccc(OCC)c(NC(=O)c2nnn(CC(=O)Nc3ccc(C)cc3C)c2N)c1` was tested, and the activation was inactive: -13.6%.
For `CSc1cccc(NC(=O)CN2C(=O)COc3ccc(Cl)cc32)c1`, the activation was inactive: 26.2%.
For `CCOc1ccc(C(=O)N2CCC(c3nc4ccccc4o3)CC2)cc1`, the activation was inactive: -19.5%.
`CCOc1ccc(NC(=O)CSc2nc3c(oc4ccccc43)c(=O)n2-c2ccccc2C)cc1` was tested, and the activation was inactive: -7.05%.
With `CC(NC(=O)c1ccc2c(c1)CCN2S(=O)(=O)c1ccc(Cl)cc1)c1ccccc1` (centres undefined) the activation was inactive: -10.6%.
`CCCCc1ccc(NC(=O)c2cc3c(=O)n4ccccc4nc3s2)cc1` was tested, and the activation was inactive: 3.86%.
For `COc1ccccc1-c1nnc(SCC(=O)c2ccc(Cl)cc2)n1-c1ccccc1`, the activation was active: 79.5%.
For `Cc1ccc(NC(=O)NCCc2c(C)nn(C)c2C)cc1Cl`, the activation was inactive: 41.7%.
With `CCn1ccc2cc(S(=O)(=O)N3CCCN(C(=O)Nc4cccc(Cl)c4)CC3)ccc21` the activation was inactive: 5.37%.
For `COc1ccc(C2=NN(CC(=O)NCCc3ccc(OC)c(OC)c3)C(=O)CC2)cc1`, the activation was inactive: -10.7%.
With `COc1ccc(N(C)C(=O)c2cn(C3CCCCC3)c(=O)c3c2c2ccccc2n3C)cc1` the activation was inactive: -28.5%.
With `CCOC(=O)c1c(S(=O)(=O)N2CCCC(C(=O)Nc3cccc(Cl)c3)C2)c(C)n(C)c1C` (centres undefined) the activation was inactive: -2.84%.
In the case of `CCCCN(CC)CCCNC(=O)CCN1N=C(c2ccc(OC)cc2)CCC1=O`, the activation is reported as inactive: -9.97%.
In the case of `COc1ccccc1NC(=O)C(=O)NCCc1csc(-c2cccc(F)c2)n1`, the activation is reported as inactive: 0.802%.
With `COc1ccc(NC(=O)c2cc(C3CC3)nc3c2c(C)nn3-c2ccccc2)cc1` the activation was inactive: -22.8%.
For `COc1ccccc1NC(=O)C1=C(C)Nc2ncnn2C1c1ccccc1C(=O)O` (centres undefined), the activation was inactive: -2.86%.
For `COc1ccc(-n2c(=O)c3c4c(sc3n(Cc3ccc(F)cc3)c2=O)CCCC4)c(OC)c1`, the activation was inactive: 25%.
`COc1cccc(CNC(=O)c2cc3c(s2)-c2ccccc2OC3)c1` was tested, and the activation was inactive: -9.13%.
In the case of `Cc1cc(N2CCCCC2)nc2ccc(NC(=O)c3cccc(Cl)c3)cc12`, the activation is reported as inactive: -26.9%.
In the case of `CCOc1ccc(CNS(=O)(=O)c2cc3c(cc2C)NC(=O)CO3)cc1OC`, the activation is reported as inactive: -10.5%.
With `CCOc1ccccc1C(=O)Nc1ccc2nc(N(CC)CC)cc(C)c2c1` the activation was inactive: -10.5%.
For `CN1C(=O)c2ccccc2Sc2ccc(NC(=O)c3ccccc3F)cc21`, the activation was inactive: -4.29%.
`O=C1c2oc3ccccc3c(=O)c2C(c2ccccc2)N1Cc1ccc2c(c1)OCO2` (centres undefined) was tested, and the activation was inactive: -2.25%.
With `CCOC(=O)c1cccc(NC(=O)[C@@H](c2ccccc2)N2Cc3ccccc3C2=O)c1` the activation was inactive: -6.38%.
In the case of `Cc1cc(C)c(NC(=O)Cc2csc(C)n2)c(Cl)c1`, the activation is reported as inactive: -14.2%.
In the case of `CCN1C(=O)c2ccccc2Sc2ccc(C(=O)NCCCN(CC(C)C)CC(C)C)cc21`, the activation is reported as inactive: -25%.
`CC1COc2c(N3CCN(C)CC3)c(F)cc3c(=O)c(C(=O)O)cn1c23` (centres undefined) was tested, and the activation was inactive: -37.8% and inactive: -0.885%.
In the case of `COc1ccccc1CNc1ccc(-c2nc(-c3cccnc3)no2)cc1[N+](=O)[O-]`, the activation is reported as inactive: -19.7%.
For `CCOc1ccccc1C1C(C(=O)N2CCCCC2)=C(C)Nc2nc3ccccc3n21` (centres undefined), the activation was inactive: 9.74%.
In the case of `CCOc1ccccc1NC(=O)c1nn(-c2ccc(C)cc2)c(=O)n(C)c1=O`, the activation is reported as inactive: -3.24%.
For `COC(=O)c1c(-c2cccs2)csc1NC(=O)COc1ccc(C(C)(C)C)cc1`, the activation was inactive: 5.81%.
With `O=C(NCC1CCN(Cc2cccc(Cl)c2)CC1)Nc1cc(Cl)ccc1Cl` the activation was inactive: 6.7%.
`COc1ccc(N(C)C(=O)CCn2cnc3onc(-c4ccc(F)cc4)c3c2=O)c(OC)c1` was tested, and the activation was inactive: 16%.
`COc1cccc(NC(=O)CN2C(=O)c3cccnc3Oc3ccc(Cl)cc32)c1` was tested, and the activation was inactive: -32.8%.
With `CCc1ccc(NC(=O)c2sc(-n3nc(C)c(Cc4ccc(OC)cc4)c3C)nc2C)cc1` the activation was inactive: 4.54%.
In the case of `COc1ccc(C2CC(=O)N(CC(=O)Nc3cc(C)ccc3C)c3ccccc3S2)cc1` (centres undefined), the activation is reported as inactive: 5.06%.
In the case of `CCCCN(CCCC)C(=O)c1cc2c(=O)n3cccc(C)c3nc2s1`, the activation is reported as inactive: 28.4%.
In the case of `N[C@@H](CSSC[C@H](N)C(=O)O)C(=O)O`, the activation is reported as inactive: -69.3%.
In the case of `CCCCCS(=O)(=O)c1oc(-c2cccs2)nc1S(=O)(=O)c1ccc(C)cc1`, the activation is reported as inactive: -15%.
